Measured values from patent publication US20220306753A1 (JN BIOSCIENCES, published 2022).

Key:
CD80-FLAG-GPI [1] = biological target: T1, CD80-FLAG-GPI (human); assay: flow cytometry on CHO-K1/CD80 cells, binder at 625 ng/ml, PE anti-human IgG
T1 construct: also called CHO-K1/CD80 cells
T1 chain: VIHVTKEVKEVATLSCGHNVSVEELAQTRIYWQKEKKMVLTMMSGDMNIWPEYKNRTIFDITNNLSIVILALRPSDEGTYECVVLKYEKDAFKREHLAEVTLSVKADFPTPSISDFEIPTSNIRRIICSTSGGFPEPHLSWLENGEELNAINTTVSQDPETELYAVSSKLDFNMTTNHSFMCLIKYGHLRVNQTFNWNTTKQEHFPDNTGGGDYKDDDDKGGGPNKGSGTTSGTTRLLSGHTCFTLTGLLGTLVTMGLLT
Experimental: (§1) CHO-K1 stable transfectants expressing CD80-FLAG-GPI (CHO-K1/CD80) and CD86-FLAG-GPI (CHO-K1/CD86) were generated by electroporation with pFCm553 and pFCm554, respectively, as described above. Binding of HuABC2-CH3-CTLA4YE, HuABC2-Ck-CTLA4YE, HuABC2-CTLA4YE-VH and HuABC2-CTLA4YE-Vk to CHO-K1/CD80 and CHO-K1/CD86 cells was analyzed by flow cytometry. Belatacept (also known as LEA29Y and Nulojix; SEQ ID NO:49), which is a CTLA4-Ig fusion protein carrying a substitution of an alanine residue to a tyrosine residue at position 29 (A29Y) and another substitution of a leucine residue to a glutamate residue at position 104 (L104E) of SEQ ID NO:10 (Larsen et al., Am. J. Transplant. 5:443-453, 2005; Oshima et al., Protein Eng. Des. Sel. 29:159-167, 2016), was purchased from Creative Biomart (Cat. No. THP-0109, Shirley, N.Y.) and used as a reference in the experiments.
(§2) Purified test samples (HuABC2-CH3-CTLA4YE, HuABC2-Ck-CTLA4YE, HuABC2-CTLA4YE-VH, and HuABC2-CTLA4YE-Vk) and belatacept, starting at 10 μg/mland five steps of 4-fold serial dilutions, were incubated with CHO-K1/CD80 or CHO-K1/CD86 cells in FACS Buffer (PBS containing 0.5% BSA and 0.05% sodium azide) for 30 min at 4° C. After washing with FACS Buffer, cells were incubated with PE-labeled goat anti-human IgG antibody (SouthernBiotech, Birmingham, Ala.) in FACS Buffer for 20 min at 4° C. After washing and suspension in FACS Buffer, stained cells were subjected to flow cytometry.
(§3) The binding patterns of HuABC2-CH3-CTLA4YE, HuABC2-Ck-CTLA4YE, HuABC2-CTLA4YE-VH, HuABC2-CTLA4YE-Vk and belatacept to CHO-K1/CD80 cells are shown in FIG. 9A. While the binding of each of HuABC2-CTLA4YE-VH and HuABC2-CTLA4YE-Vk to CD80 was only slightly weaker than the binding of belatacept, the binding of HuABC2-CH3-CTLA4YE and HuABC2-Ck-CTLA4YE was a lot weaker than that of belatacept.

CD86-FLAG-GPI [2] = biological target: T2, CD86-FLAG-GPI (human); assay: flow cytometry on CHO-K1/CD86 cells, binder at 500 ng/ml
T2 construct: also called CHO-K1/CD86 cells
T2 chain: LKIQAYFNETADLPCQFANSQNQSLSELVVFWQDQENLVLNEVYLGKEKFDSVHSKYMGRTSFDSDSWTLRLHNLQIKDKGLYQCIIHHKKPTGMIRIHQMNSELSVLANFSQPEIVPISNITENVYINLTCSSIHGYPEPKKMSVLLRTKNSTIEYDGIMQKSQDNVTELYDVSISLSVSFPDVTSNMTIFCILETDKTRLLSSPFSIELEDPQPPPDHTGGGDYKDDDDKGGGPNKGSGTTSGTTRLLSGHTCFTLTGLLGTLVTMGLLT
Experimental: as §2
(§4) The two expression vectors (pHC644 and pHC645) were individually transfected into HEK293 cells as described above. Their expression level in culture supernatants was measured by sandwich ELISA as described above. Binding of HuABC77D-CH3-CTLA4YE and HuABC77D-CTLA4YE-VH to CHO-K1/CD80 and CHO-K1/CD86 cells was analyzed by flow cytometry as described above. Belatacept was used as a reference for binding to CD80 and CD86. The test samples were used at 500 ng/ml and four steps of 3-fold serial dilutions.
(§5) The results of binding to CHO-K1/CD80 and CHO-K1/CD86 cells are shown in FIGS. 13A and B, respectively.

CD86-FLAG-GPI [3] = biological target: T2, CD86-FLAG-GPI; assay: flow cytometry on CHO-K1/CD86 cells, binder at 625 ng/ml, PE anti-human IgG
Experimental: as §1, §2
as §3, with “CHO-K1/CD86” for “CHO-K1/CD80”, “9B. Like the case with CHO-K1/CD80 cells, while” for “9A. While”, “CD86” for “CD80”, “the binding” for “that”

CD86-FLAG-GPI [4] = biological target: T2, CD86-FLAG-GPI; assay: flow cytometry on CHO-K1/CD86 cells, binder at 200 ng/ml
Experimental: as §2
(§6) The two expression vectors (pHC642 and pHC630) were individually transfected into HEK293 cells as described above. Their expression level in culture supernatants was measured by sandwich ELISA as described above. Binding of transiently expressed HuABC101-CTLA4YE-VH and HuABC101-CH3-CTLA4YE to CD80 and CD86 was analyzed by flow cytometry as described above. Belatacept was used as a reference for binding to CD80 and CD86.
(§7) Binding of HuABC101-CH3-CTLA4YE to each of CD80 and CD86 was much weaker than the binding of HuABC101-CTLA4YE-VH.

CD80-FLAG-GPI [5] = biological target: T1, CD80-FLAG-GPI; assay: flow cytometry on CHO-K1/CD80 cells, binder at 200 ng/ml
Experimental: as §2, §6, §7

CD80-FLAG-GPI [6] = biological target: T1, CD80-FLAG-GPI; assay: flow cytometry on CHO-K1/CD80 cells, binder at 500 ng/ml
Experimental: as §2, §4, §5

[7] = biological target: T3, Human IL-2R beta/CD122 Protein, Fc Tag (human, UniProt P14784 27-239); assay: ELISA, plate coated with 1 µg/ml CD122 Fc tag protein, binder from 0.5 µg/ml in 2-fold dilutions, anti-human kappa-HRP
T3 construct: Bought protein coated on the ELISA plate; also called Cat. No. ILB-H5253, Acro Biosystems; not shown: Fc tag of the bought protein
T3 sequence (looked up): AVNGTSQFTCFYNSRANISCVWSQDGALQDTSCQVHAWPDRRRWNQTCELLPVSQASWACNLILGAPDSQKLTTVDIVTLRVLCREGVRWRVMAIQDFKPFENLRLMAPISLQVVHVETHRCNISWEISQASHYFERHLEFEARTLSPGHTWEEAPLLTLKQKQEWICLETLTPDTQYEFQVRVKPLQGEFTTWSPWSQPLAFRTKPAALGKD
Experimental: (§8) Binding of HuABC2-CTLA4 and HuABC2-CTLA4YE to human CD122, CD80 and CD86 was analyzed by ELISA. Wells of an ELISA plate were coated with 1 μg/ml of either CD122 (Human IL-2R beta/CD122 Protein, Fc Tag; Cat. No. ILB-H5253, Acro Biosystems, Newark, Del.), CD80 (Human B7-1/CD80 Protein, Mouse IgG2a Tag; Cat. No. B71-H52A4, Acro Biosystems) or CD86 (Human B7-2/CD86 Protein, Fc Tag; Cat. No. CD6-H5257, Acro Biosystems) in PBS. After blocking with Blocking Buffer and washing the wells with Wash Buffer, transiently expressed HuABC2-CTLA4 and HuABC2-CTLA4YE at 0.5 μg/ml and serial 2-fold dilutions in ELISA Buffer were applied to the wells in duplicates. Purified HuABC2 at 0.5 μg/mland serial 2-fold dilutions was used as a control. After incubation for 1 hr at room temperature and washing with Wash Buffer, bound antibodies were detected using HRP-conjugated goat anti-human kappa chain polyclonal antibody. After incubation for 30 min and washing with Wash Buffer, color development was initiated by adding ABTS substrate and stopped with 2% oxalic acid. Absorbance was read at 405 nm.

[8] = biological target: T4, Human B7-2/CD86 Protein, Fc Tag (human, UniProt P42081 24-247); assay: ELISA, plate coated with 1 µg/ml CD86 Fc tag protein, binder from 0.5 µg/ml in 2-fold dilutions, anti-human kappa-HRP
T4 construct: Bought protein coated on the ELISA plate; also called Cat. No. CD6-H5257, Acro Biosystems; not shown: Fc tag of the bought protein
T4 sequence (looked up): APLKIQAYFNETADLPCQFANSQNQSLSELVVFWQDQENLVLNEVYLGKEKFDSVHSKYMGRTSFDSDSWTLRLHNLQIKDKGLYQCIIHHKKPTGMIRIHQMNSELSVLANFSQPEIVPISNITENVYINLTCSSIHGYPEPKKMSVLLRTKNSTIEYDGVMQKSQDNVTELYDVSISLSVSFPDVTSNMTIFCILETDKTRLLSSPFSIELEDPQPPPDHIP
Experimental: as §8

[9] = biological target: T5, Human B7-1/CD80 Protein, Mouse IgG2a Tag (human, UniProt P33681 35-242); assay: ELISA, plate coated with 1 µg/ml CD80 mouse IgG2a tag protein, binder from 0.5 µg/ml in 2-fold dilutions, anti-human kappa-HRP
T5 construct: Bought protein coated on the ELISA plate; also called Cat. No. B71-H52A4, Acro Biosystems; not shown: mouse IgG2a tag of the bought protein
T5 sequence (looked up): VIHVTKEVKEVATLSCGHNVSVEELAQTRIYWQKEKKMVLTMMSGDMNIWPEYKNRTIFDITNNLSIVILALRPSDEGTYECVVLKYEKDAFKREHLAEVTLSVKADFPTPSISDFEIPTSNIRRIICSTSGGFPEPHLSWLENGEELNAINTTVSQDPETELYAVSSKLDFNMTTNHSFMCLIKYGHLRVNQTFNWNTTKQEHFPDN
Experimental: as §8

B1: Belatacept (Fc fusion)
chain: MHVAQPAVVLASSRGIASFVCEYASPGKYTEVRVTVLRQADSQVTEVCAATYMMGNELTFLDDSICTGTSSGNQVNLTIQGLRAMDTGLYICKVELMYPPPYYEGIGNGTQIYVIDPEPCPDSDQ[gap - human IgG1 Fc with changes]
notes: Human CTLA-4 extracellular domain with A29Y and L104E fused to the Fc region of human gamma-1 heavy chain; bought from Creative Biomart (Cat. No. THP-0109); also called LEA29Y; Nulojix
mean channel fluorescence (MCF) (CD80-FLAG-GPI [1]): 1580 | mean channel fluorescence (MCF) (CD86-FLAG-GPI [2]): 723 | mean channel fluorescence (MCF) (CD86-FLAG-GPI [3]): 1180 | mean channel fluorescence (MCF) (CD86-FLAG-GPI [4]): 917 | mean channel fluorescence (MCF) (CD80-FLAG-GPI [5]): 1880 | mean channel fluorescence (MCF) (CD80-FLAG-GPI [6]): 4390

B2: HuABC2-CTLA4 (other)
heavy: EVQLVESGGGLVQPGGSLRLSCAASGFTFSDFYMEWVRQAPGKGLEWIAASRNKANDYTTEYSASVKGRFIVSRDDSKNSLYLQMNSLKTEDTAVYYCARSYYRYDGMDYWGQGTTVTVSSASTKGPSVFPLAPSSKSTSGGTAALGCLVKDYFPEPVTVSWNSGALTSGVHTFPAVLQSSGLYSLSSVVTVPSSSLGTQTYICNVNHKPSNTKVDKKV[gap - human IgG1 Fc with changes]SGGGGSGMHVAQPAVVLASSRGIASFVCEYASPGKATEVRVTVLRQADSQVTEVCAATYMMGNELTFLDDSICTGTSSGNQVNLTIQGLRAMDTGLYICKVELMYPPPYYLGIGNGTQIYVIDPEPCPDSD
light: EIVLTQSPATLSLSPGERATLSCSAISSVSYMYWYQQKPGQAPRLLIYDTSNLVSGVPARFSGSGSGTDYTLTISSLEPEDFAVYYCQQWNTYPYTFGGGTKVEIKRTVAAPSVFIFPPSDEQLKSGTASVVCLLNNFYPREAKVQWKVDNALQSGNSQESVTEQDSKDSTYSLSSTLTLSKADYEKHKVYACEVTHQGLSSPVTKSFNRGEC
notes: encoded by pHC624; tested as transient HEK293 culture supernatant
binding result [7]: binds | binding result [8]: binds | binding result [9]: binds
